# In all, about 150,000 compounds went through this assay and about 540 (0.36%) showed an effect of 50% or more. The list shows a part of the results.
# Test system: Plasmodium falciparum
# Assay: Primary screen in NF54 nanoGlo assay, in single point, at 2uM, 72h; a lower Z score goes with more inhibition
# Type: functional, Erythrocyte
# Settings: timepoint 72 hour
Structure (SMILES),% Inhibition [%],Z score
CC(C)c1ccc(NC(=O)[C@@H](NC(=O)C2CCN(C(=O)[C@@H]3CCCN3C(=O)OC(C)(C)C)CC2)C(C)C)cc1,5,-0.68
CC(CCC(C)(C)C)NC(=O)NCC(O)c1cnn(C)c1 (configuration not stated),-13,2.06
COC(=O)c1ccc(C)c(NC(=O)OCC(F)(F)F)c1,6,-0.75
CN(Cc1ccon1)C(=O)c1ccc2sc(N)nc2c1,8,-1.2
COc1ccc(N2C(=O)N[C@@H](CCC(=O)N[C@H](C)c3nc4ccccc4[nH]3)C2=O)cc1,-8,1.03
C[C@@H](C(=O)N1CC(c2nc(-c3ccccc3)no2)C1)n1cncn1,6,-0.92
CC1CCN(S(=O)(=O)c2ccc3c(ccc(=O)n3CC(=O)Nc3ccc(C(C)C)cc3)c2)CC1,-7,0.94
CCOCn1nc(C)c(C[C@H](C)C(=O)NC2(C)CCCCC2)c1C,-2,0.24
CC[C@H](NC(=O)c1ncncc1Cl)c1c(C)noc1C,1,-0.17
Cc1ccc(S(=O)(=O)Nc2nc(-c3ccc(C4CCCCC4)cc3)cs2)cc1,-4,0.73
O=C(NCC1CCCCC1O)C(=O)Nc1c(F)cccc1F (configuration not stated),-4,0.57
CCN1CCC(N2CCO[C@@]3(COCCN(C(=O)c4ccccc4C)C3)C2)CC1,-10,1.93
CC(C)C(=O)Nc1nc(NC(=O)C(C)C)n(C)n1,1,-0.24
O=C(NS(=O)(=O)c1cccs1)[C@@]12CCCC[C@@H]1CNC2,1,-0.18
CN(Cc1ccc(-c2ccco2)cc1)C1CCOCC1,-28,2.61
COc1ccc(OCc2cc(C(=O)NCCc3cn[nH]c3)n[nH]2)c(Cl)c1,-13,1.84
CC(C)CN1CC(=O)N(CCCS(C)(=O)=O)C1=O,0,-0.03
COc1cncc(C(NC(=O)c2nnc3n2CCCC3)[C@H]2C[C@@H](O)C2)c1 (some centres not stated),-15,2.01
CC(=O)c1ccccc1C(=O)N1CCC2(CC1)c1nc[nH]c1CCN2C(C)=O,-7,0.89
O=S(=O)(Nc1cnccc1N1CCCCC1)c1cccs1,-10,1.17
CCCC(=O)N1CCC(OC(=O)CC2CCC3(CC2)OCCO3)CC1,-5,0.66
COc1ccc(CCN(CCC(=O)Nc2nnc(-c3ccc(C)cc3)s2)C(=O)COCc2ccccc2)cc1OC,-9,1.5

Structure (SMILES),% Inhibition [%],Z score
Cc1ccc(C(=O)N[C@@H]2CCNC(=O)CC2)cc1F,4,-0.84
COc1cccc(CN2CCN(Cc3ccccn3)[C@H]3CS(=O)(=O)C[C@H]32)c1,1,-0.17
CCOc1ccc(-c2csc(C)n2)cc1S(=O)(=O)N1CCN(C)CC1,1,-0.07
N#Cc1ccc(N2CCC[C@@]3(CCC(=O)N(CCc4ccccn4)C3)C2)nc1,17,-2.25
O=C(C[C@H]1COc2ccc(Cl)cc2N1Cc1ccccc1)NCCCc1ccccc1,-8,1.04
CCCOc1ccc(-n2ccc(-c3cnccn3)n2)cc1CO,2,-0.3
CC1(C)CCCN1Cc1cn(C2CCN(C(=O)[C@H]3CC34CCC4)CC2)nn1,-11,1.45
CC1CN(CC2CCOC2)CCC1(F)F (configuration not stated),-15,2.14
Cc1cc(NC(=O)c2cc(OCc3ccccc3)ncn2)[nH]n1,4,-0.81
COc1ccc(NC(=O)c2ccc(NC(=O)CCc3c(C)noc3C)cc2)cc1,-9,1.25
Cc1ccc(Cl)c(Oc2cc(N(C)Cc3ccccc3)ncn2)c1,-13,1.51
CNc1nc(C(=O)N2CCC[C@@](O)(CO)C2)cs1,-6,0.81
Cc1cccc(OC2CCN(C(=O)c3cnn4ccccc34)CC2)c1,-5,0.49
CN1CCN(CC(=O)NCCc2csc(-c3ncccn3)n2)C1=O,-13,2
C=CCOc1ccccc1CN(CC)C[C@H](O)CO,-2,0.3
CC(C)NC(=O)c1ncc2c(n1)CN(C(=O)OC(C)(C)C)C2,0,0.02
COCc1nc(C(=O)NC[C@@H]2OCCc3sc(F)cc32)no1,-7,1.44
CNC(=O)c1cc(S(=O)(=O)N(C)c2ccc(O)c(C)c2)cn1C,-10,1.3
CCOc1ccccc1CNC(=O)CC1CCN(S(=O)(=O)c2ccccc2)CC1,-4,0.71
CC1CCN(CC(O)CN2CCOCC2)c2ccccc21 (configuration not stated),-2,0.34
COc1ccc2[nH]cc(C[C@@H](CN)c3ccccc3)c2c1,-2,0.28
CN(C)C(=O)[C@H](CNC(=O)OC(C)(C)C)c1ccccc1,-5,0.46

Structure (SMILES),% Inhibition [%],Z score
CCc1ccc([C@@H]2COCCN2Cc2nnnn2-c2ccccc2)o1,4,-0.41
C#CCOc1cccc(COC(=O)c2ccnc(C3CC3)n2)c1,-8,0.98
COc1c2c(cc3c1[C@@H](C#CCOc1ccccc1)[N+](C)(C)CC3)OCO2,64,-13.6
C=CCC(NCC(C)CCc1ccccc1)C(=O)O (configuration not stated),-7,1.02
Cc1cc(C)n(-c2nnc(-c3ccccc3)c(-c3ccccc3)n2)n1,38,-0.97
Cc1cc(NC(=O)c2oc(CC3CC3)nc2C)ccc1F,-3,0.28
CS(=O)(=O)N1C[C@H]2CN(Cc3ccccc3Cl)CC[C@@]2(CO)C1,-5,0.56
CCc1cccnc1C(=O)NCCOC1CCCCCC1,6,-0.77
Cc1c(S(=O)(=O)NCc2ccn(C3CCCC3)n2)c2ccccc2n1C,-5,0.93
C[C@]1(Cc2ccc3c(c2)OCO3)CCCN(C(=O)Cn2ccnc2)C1,-8,0.87
CCCc1nnsc1C(=O)NCc1cc(C(C)(C)C)n[nH]1,-14,1.49
Cc1ccc(NC(=O)c2cnc(-c3cnn(C)c3)s2)c(C)n1,31,-3.99
COc1ccccc1C1CC1C(=O)NC1CCCCC1C(F)(F)F (configuration not stated),5,-0.89
Cc1cc(C(=O)Nc2sc3c(c2C#N)CCCC3)cs1,-10,0.95
COc1ccccc1OCCN1CCC[C@H](c2nnc3n2CCC3)C1,-7,0.99
COc1ccccc1-c1nc(S(=O)(=O)c2ccc3c(c2)OCCO3)c(NCc2cccnc2)o1,-11,1.49
O=C(Nc1nc(C(=O)NCCc2ccccn2)cs1)c1ccc(Cl)c(Cl)c1,-19,1.78
N#Cc1ccc(-c2nc(-c3ccc4c(c3)ncn4CCN3CCOCC3)no2)cc1,2,-0.37
O=C(Nc1cnccc1-c1ccccc1)c1ccccc1F,3,-0.49
CN(C(=O)c1n[nH]c2c1CCCC2)[C@H]1CS(=O)(=O)C[C@@H]1O,-4,0.74
CN(C)c1ncccc1N(C)S(=O)(=O)c1cnn(C)c1,-4,0.45
O=C(Nc1ccc(Cl)cc1F)c1csc(-c2ccc(N3CCCC3)nc2)n1,-9,1.51

Structure (SMILES),% Inhibition [%],Z score
C[C@@H](Cc1ccc(Cl)cc1Cl)C(=O)NCC#N,-7,1.19
CCCC(=O)N1CCC(N2C(=O)CC[C@H]2C(=O)NCc2ccccc2)CC1,-8,1.38
Cc1nc2ccc(NCc3cnc(-c4ccccn4)s3)cc2o1,-7,0.98
COc1ccc(OCc2nc(C(=O)N3CCN4CCNC(=O)[C@@H]4C3)co2)cc1,-7,1.2
C[C@H]1CNCCN1C(=O)CCn1nnc2ccccc2c1=O,-11,1.43
O=C(Nc1c(-c2ccc(C(F)(F)F)cc2)n[nH]c1C1CC1)c1cccc(Cl)c1,-6,0.76
Cc1ccc2nc(NC(=O)CC3CCCCC3)sc2c1,-6,1.21
CC(C)(CC(=O)NCc1cccc(CO)n1)Cc1ccc(Cl)cc1,8,-1.49
Cc1noc(C)c1CS(=O)(=O)Cc1cn2ccccc2n1,-7,1.24
c1cncc(-c2noc(-c3cccnc3)n2)c1,-2,0.25
Cc1nnc(CC(=O)N2CCO[C@H](C(C)C)C2)o1,-5,0.99
COCC(=O)N(Cc1cccc(OS(C)(=O)=O)c1)CC1CC1,-13,1.29
c1ccc(COc2ccc(-c3cnc4nncn4c3)cc2)cc1,-10,1.31
O=C(O)Cn1nc(-c2ccco2)nc1CCN1CCCCCCC1,-11,1.92
CCC(CO)NC(C)c1ccccc1OC (configuration not stated),-12,1.44
CCN=C(NCC#Cc1ccccc1)NCCN1CCC(OC)CC1,-3,0.31
NC(=O)c1ccc(CC2CCN(C(=O)c3cccs3)CC2)cc1,4,-0.46
CCN(C(=O)N[C@@H](C)c1noc(C)n1)C(C)C,-7,0.93
CCc1nc2c(c(O[C@H]3CCCN(Cc4ccccc4Cl)C3)n1)CCOCC2,-12,1.87
CN(C)C(=O)[C@H]1CC(=O)N(C2CCCCCC2)C1,6,-1.12

# From ChEMBL document CHEMBL4888484, “Replenishing the malaria drug discovery pipeline: Screening and hit evaluation of the MMV Hit Generation Library 1 (HGL1) against asexual blood stage Plasmodium falciparum ,using a nano luciferase reporter read-out” (2022)
